PubChem BioAssay AID624171 (National Center for Advancing Translational Sciences (NCATS), 2012)
The whole screen tested about 410,000 compounds, of which about 1,200 (0.29%) were called active. The shares of active, inactive and inconclusive entries below differ from those in the screen. The call rests on the fitted dose curve; in most records, active means well fitted activation curve with a large enough effect; inconclusive means small, poorly fitted or top-dose-only effect; inactive means flat fitted curve, though single readings scatter. Potencies beside an inconclusive call are fits to weak or partial responses and may not hold up.

assay: qHTS of Nrf2 Activators; details: AREc32 ARE-luciferase reporter (MCF7-derived line), luminescence, 24 h; activation: at 46.1 µM (top of the series); further: nearly all actives have a fitted effect of over 65% in size
How it was run: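 ARE activation measured as luciferase luminescence (Steady-Glo, 30 min RT) in AREc32_Fluc cells after 24 hr compound exposure at 37 deg C, 5% CO2; cells seeded overnight at 1000/well in OPTI-MEM, 5% FBS.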
Potency means the concentration at half of the fitted maximal effect; tags describe the fitted curve by direction and shape.

Question: Which Potency does the source give for CCCCCOc1ccc(/C=C/C(=O)Nc2sc(C(C)=O)c(C)c2C(=O)OCC)cc1OC here?
Answer: inconclusive: 31.6 µM [activator, single point]

Question: For Cc1nc(-c2ccccc2)sc1-c1nnc(C2CC2)o1, which Potency is on record?
Answer: active: 15.8 µM

Question: With CC(=O)/C=C/c1ccccc1Oc1c(F)c(F)nc(F)c1F as the compound, how does the Potency read?
Answer: active: 7.94 µM

Question: With CC(C)Sc1ncc(Cl)c(C(=O)Nc2nnc(C(C)C)s2)n1 as the compound, how does the Potency read?
Answer: inconclusive: 17.8 µM [activator, single point]

Question: For CCOC(=O)c1c(C)oc2c1c1c(c3ccccc32)OCN(Cc2cccnc2)C1, which Potency is on record?
Answer: inconclusive: 10 µM [activator, partial curve, poor fit]

Question: With O=C(NN=Cc1c(O)ccc2ccccc12)C1CC1 as the compound, how does the Potency read?
Answer: inconclusive: 3.16 µM [activator, single point]

Question: For CN(CC(=O)Nc1ccc(Cl)c(C(F)(F)F)c1)C(=O)/C=C/c1ccco1, which Potency is on record?
Answer: inconclusive: 22.4 µM [activator, single point]

Question: For COc1cc(OC)cc(-c2nc3ccccc3s2)c1, which Potency is on record?
Answer: inconclusive: 3.98 µM [activator, full curve]

Question: Which Potency does the source give for O=c1[nH]sc2ccccc12 here?
Answer: inconclusive: 22.4 µM [activator, single point]

Question: For Cc1ccc(/C=C/C(O)=C2/C(=O)N(C)C3(C)CC2c2ccccc2O3)cc1 (configuration not stated), which Potency is on record?
Answer: inconclusive: 31.6 µM [activator, single point]

Question: With O=S1(=O)C=C(SCCN2CCCCC2)c2ccccc21 as the compound, how does the Potency read?
Answer: inconclusive: 25.1 µM [activator, single point]

Question: Which Potency does the source give for Cn1cc(Cl)c(C(=O)Nc2nc3ccc(Cl)cc3s2)n1 here?
Answer: inactive

Question: With COc1ccc(-c2cc(N)n(S(=O)(=O)c3c(F)c(F)c(F)c(F)c3F)n2)cc1OC as the compound, how does the Potency read?
Answer: inconclusive: 5.62 µM [activator, single point]

Question: For N#CNC(=Nc1cccc(C(F)(F)F)c1)SCc1ccc(C(=O)O)cc1, which Potency is on record?
Answer: inconclusive: 35.5 µM [activator, single point]

Question: With O=S(=O)(CC(CN1CCCCC1)N1CCCCC1)c1ccccc1 (configuration not stated) as the compound, how does the Potency read?
Answer: inactive

Question: With O=[N+]([O-])c1cccc(C(=NCc2ccccc2)NO)c1 as the compound, how does the Potency read?
Answer: inconclusive: 12.6 µM [activator, single point]

Question: Which Potency does the source give for Oc1ccc(/C=C/c2ccnc3ccccc23)cc1 here?
Answer: inconclusive: 12.6 µM [activator, single point]

Question: Which Potency does the source give for Cc1c(Nc2nc3ccccc3n3cnnc23)cccc1[N+](=O)[O-] here?
Answer: inconclusive: 3.16 µM [activator, partial curve]

Question: Which Potency does the source give for COc1ccccc1NC(=O)c1coc(=O)c(Br)c1 here?
Answer: inconclusive: 22.4 µM [activator, single point]

Question: For CCOc1ccccc1NC(=O)Cn1ncc2ccc([N+](=O)[O-])cc21, which Potency is on record?
Answer: inconclusive: 12.6 µM [activator, partial curve]

Question: With Cn1c2ccccc2c(=O)c2cc(C#Cc3ccsc3)ccc21 as the compound, how does the Potency read?
Answer: inconclusive: 1 µM [activator, full curve, poor fit]

Question: Which Potency does the source give for COc1cc(/C=C/c2ccc3cccc(O)c3n2)cc(Br)c1OC here?
Answer: inconclusive: 22.4 µM [activator, single point]

Question: With CCOC(=O)C1=C(CN2CCN(c3cccc(OC)c3)CC2)NC(=O)NC1c1ccc(OC)cc1 (configuration not stated) as the compound, how does the Potency read?
Answer: inactive

Question: With COc1ccc(/C=C/C(=O)c2cc(F)ccc2OC(=O)c2ccccc2)cc1OC as the compound, how does the Potency read?
Answer: inactive

Question: For Cc1ccc(Cl)c(NC(=O)CCl)c1Cl, which Potency is on record?
Answer: inconclusive: 22.4 µM [activator, single point]

Question: For O=C(Nc1ccc(N2CCCC2)c(Cl)c1)c1ccc([N+](=O)[O-])o1, which Potency is on record?
Answer: inconclusive: 3.55 µM [activator, single point]

Question: With O=C(Nc1csc([N+](=O)[O-])c1)Nc1c(Cl)cccc1Cl as the compound, how does the Potency read?
Answer: inconclusive: 22.4 µM [activator, single point]

Question: Which Potency does the source give for COc1ccc(NC(=O)CSc2c3c(nc4ccccc24)CCC3)c(OC)c1 here?
Answer: inconclusive: 22.4 µM [activator, single point]

Question: For CCOCCCNC(=O)CN1C(=O)/C(=C/c2ccccc2)Sc2ccccc21, which Potency is on record?
Answer: inactive

Question: With CCOC(=O)c1c(-c2ccc(C)o2)csc1NC(=O)COC(=O)c1ccc(NC(N)=O)cc1 as the compound, how does the Potency read?
Answer: inactive

Question: With CCOc1ccc(S(=O)(=O)N2CC(=O)Nc3ccccc32)cc1 as the compound, how does the Potency read?
Answer: inactive

Question: With COC(=O)c1ccc(COC(=O)CCC(=O)c2cccs2)cc1 as the compound, how does the Potency read?
Answer: inactive

Question: Which Potency does the source give for C=C1C(=O)O[C@@H]2[C@H]3O[C@]3(C)CC/C=C(\C)CC[C@@H]12 here?
Answer: inconclusive: 15.8 µM [activator, partial curve, poor fit]

Question: With CCCCCN(C(=O)CCC(=O)OCC(=O)N(C)Cc1ccccc1C)c1c(N)n(CCCC)c(=O)[nH]c1=O as the compound, how does the Potency read?
Answer: inactive

Question: For COc1cc2c(C(=O)N3CCN(C)CC3)c(C)n(-c3ccccc3)c2cc1Br, which Potency is on record?
Answer: inactive

Question: With N=c1oc2ccccc2cc1-c1nc(-c2ccc(Cl)cc2)cs1 as the compound, how does the Potency read?
Answer: inconclusive: 11.2 µM [activator, partial curve, poor fit]

Question: For Cc1nc(NC(=S)NC(=O)c2cccs2)ccc1Br, which Potency is on record?
Answer: inconclusive: 11.2 µM [activator, partial curve, poor fit]

Question: With COc1ccc(Cl)cc1NC(=O)CSc1c2c(nc3ccccc13)CCC2 as the compound, how does the Potency read?
Answer: inconclusive: 3.55 µM [activator, full curve, poor fit]

Question: For CC(C)c1ccc(/C=C/c2[nH]c(=O)[nH]c(=O)c2[N+](=O)[O-])cc1, which Potency is on record?
Answer: inconclusive: 31.6 µM [activator, single point]

Question: With O=C(OCc1ccc(F)cc1)c1cc(=O)c2ccccc2o1 as the compound, how does the Potency read?
Answer: inconclusive: 15.8 µM [activator, single point]

Question: For Cc1ccc(-c2nn3c(C)nnc3c3ccccc23)cc1S(=O)(=O)N(C)CCO, which Potency is on record?
Answer: inconclusive: 17.8 µM [activator, single point]

Question: Which Potency does the source give for Cc1nnc(Cc2ccco2)c2n[nH]c(C)c12 here?
Answer: active: 11.2 µM

Question: For CC(=C/c1ccco1)/C=N/NC(=O)c1ccncc1, which Potency is on record?
Answer: inconclusive: 15.8 µM [activator, partial curve, poor fit]

Question: With Nc1ccccc1O as the compound, how does the Potency read?
Answer: inconclusive: 3.55 µM [activator, single point]

Question: With COc1cc(/C=C2\CC/C(=C\c3ccc(OCCO)c(OC)c3)C2=O)ccc1OCCO as the compound, how does the Potency read?
Answer: inconclusive: 28.2 µM [activator, partial curve, poor fit]

Question: With CC(Oc1ccccc1)C(=O)Nc1cccc(-c2nc3ccccc3[nH]2)c1 (configuration not stated) as the compound, how does the Potency read?
Answer: inactive

Question: With COc1ccc(CCNC(=O)c2ccc(-n3c(C)cc4c3CCCC4)cc2)cc1OC as the compound, how does the Potency read?
Answer: inconclusive: 22.4 µM [activator, single point]

Question: Which Potency does the source give for CN(C)c1ccc(N=Nc2ccccc2C(=O)OCC(=O)NC2CCCC2)cc1 here?
Answer: inconclusive: 17.8 µM [activator, single point]

Question: Which Potency does the source give for CS(=O)(=O)N1CCC(n2c(C(F)(F)F)nc3cccnc32)CC1 here?
Answer: inactive

Question: With O=C1/C(=C/c2cccnc2)CCC/C1=C\c1cccnc1 as the compound, how does the Potency read?
Answer: inconclusive: 3.16 µM [activator, single point]

Question: With CCOC(=O)c1ccc(N=c2ssnc2Cl)cc1 as the compound, how does the Potency read?
Answer: inactive

Question: With COc1cccc(C=C2SC(=S)NC2=O)c1 as the compound, how does the Potency read?
Answer: inactive

Question: For OC1(C2(O)CC(c3ccccc3)ON2)CCCCC1 (configuration not stated), which Potency is on record?
Answer: inconclusive: 31.6 µM [activator, single point]

Question: With CC(C)N(C(=O)/C=C/c1cccc([N+](=O)[O-])c1)C(C)C as the compound, how does the Potency read?
Answer: active: 14.1 µM

Question: For O=C(/C=C/c1ccccc1)c1ccc(NC2=NCCCS2)cc1, which Potency is on record?
Answer: inconclusive: 15.8 µM [activator, single point]

Question: For CC1(C)C2CCC1(CS(=O)(=O)N1CCOCC1)C(=O)C2 (configuration not stated), which Potency is on record?
Answer: inactive

Question: Which Potency does the source give for C=C(c1ccc(O)cc1)c1ccc(O)cc1 here?
Answer: inconclusive: 22.4 µM [activator, single point]

Question: For O=C(Nc1nc2ccccc2s1)c1ccccc1, which Potency is on record?
Answer: inconclusive: 11.2 µM [activator, partial curve, poor fit]

Question: Which Potency does the source give for O=c1c2cc3c(=O)n(-c4ccccc4O)c(=O)c3cc2c(=O)n1-c1ccccc1O here?
Answer: inconclusive: 7.94 µM [activator, partial curve]

Question: For O=C(CCl)Nc1c[nH]c(=O)[nH]c1=O, which Potency is on record?
Answer: inconclusive: 35.5 µM [activator, single point]

Question: With CC(C)NC(=S)N(CCc1ccncc1)C(C)C as the compound, how does the Potency read?
Answer: inactive

Question: For COc1ccccc1N=Nc1[nH]c2ccc(C)cc2c1O, which Potency is on record?
Answer: inconclusive: 11.2 µM [activator, partial curve, poor fit]

Question: For Cc1ccc(S(=O)(=O)N2C[C@H]3n4c(=O)ccc(=O)n4C[C@H](OC(=O)NCc4ccco4)[C@@]3(O)C2)cc1, which Potency is on record?
Answer: inconclusive: 31.6 µM [activator, single point]

Question: With CN(C)C(=O)c1ccc(NC(=O)c2cc(-c3ccco3)nc3ccccc23)cc1 as the compound, how does the Potency read?
Answer: active: 11.2 µM

Question: For CC1=CC(=O)N(c2cccc3c(N4C(=O)C=C(C)C4=O)cccc23)C1=O, which Potency is on record?
Answer: inconclusive: 20 µM [activator, single point]

Question: Which Potency does the source give for Cc1ccc(N=Nc2c(N)[nH]n3c(=O)cc(-c4ccccc4)nc23)cc1 here?
Answer: inactive

Question: With Cc1[nH]n(C(N)=S)c(=O)c1N=Nc1ccc([N+](=O)[O-])cc1Cl as the compound, how does the Potency read?
Answer: inactive

Question: With Brc1ccc(C2=CC(c3ccco3)n3nnnc3N2)cc1 (configuration not stated) as the compound, how does the Potency read?
Answer: active: 5.01 µM

Question: For Cc1csc(N/N=C/c2c(F)cccc2Cl)n1, which Potency is on record?
Answer: inconclusive: 11.2 µM [activator, partial curve]

Question: Which Potency does the source give for CSc1nc(NCc2ccco2)c2ccccc2n1 here?
Answer: inconclusive: 3.98 µM [activator, partial curve]

Question: With Cc1ccccc1NC(=O)c1ccc(F)c(S(=O)(=O)N2CCN(c3ccccn3)CC2)c1 as the compound, how does the Potency read?
Answer: inactive

Question: For Cc1ccc(N(CC(=O)Nc2ccccc2C(=O)NCc2ccco2)S(=O)(=O)c2ccccc2)cc1C, which Potency is on record?
Answer: inactive
